The text below walks through data of the RNAGym collection of RNA variant scans (doi:10.1073/pnas.2313332121).

The chains are these.
B1: TPR 5TU (parent)
chain: GGAUCUUCUCGAUCUAACAAAAAAGACAAAUCUGCCACAAAGCUUGAGAGCAUCUUCGGAUGCAGAGGCGGCAGCCUUCGGUGGCGCGAUAGCGCCAACGUUCUCAACUAUGACACGCAAAACGCGUGCUCCGUUGAAUGGAGUUUAUCAUG

This sample is rich in variants without activity. Some results are limits rather than exact numbers.

The variants in this data set derive from B1. The data set can be described thus: polymerase ribozyme fitness, log enrichment relative to wild type (log ratio); higher = more active; in vitro selection for triplet polymerase activity. In outline:
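Streptavidin-bead capture of gel-excised extended constructs, followed by RT-PCR, closed a single triplicate in vitro selection round. That round began by annealing PCR-built, transcribed mutant libraries of each subunit of a heterodimeric triplet polymerase ribozyme with a biotinylated primer, the partner subunit and triplets, then incubating them frozen at −7 °C. After Illumina sequencing of inputs and outputs, genotypes needed ≥10 input reads and ≥1 read per output. Fitness is the base-2 logarithm of genotype enrichment over wild-type enrichment, using inverse-variance-weighted replicate averages.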
For the variant A47U A89G C116U G133U A138C, the “polymerase ribozyme fitness (log ratio)” value is -4.12.

For the variant A49C C85G A107G, the “polymerase ribozyme fitness (log ratio)” value was not above -4.2.

With G48C C79G G81U U127G, the “polymerase ribozyme fitness (log ratio)” value was not above -4.2.

As for A49C C75A G81C C93G A106C U109A G136A, the “polymerase ribozyme fitness (log ratio)” value is not above -4.2.

Consider A49C A52C A66G G86C A119G, for which the “polymerase ribozyme fitness (log ratio)” value is not above -4.2.

As to A49C C118A, the “polymerase ribozyme fitness (log ratio)” value is not above -4.2.

As for A49C C96A A119G C131U U145A, the “polymerase ribozyme fitness (log ratio)” value is not above -4.2.

Regarding G48A A91G U102C U134C G141C, the “polymerase ribozyme fitness (log ratio)” value is not above -4.2.

On to A47C G65A C85A C129A G141U, for which the “polymerase ribozyme fitness (log ratio)” value is not above -4.2.

For the variant A49G G50A U53A G58A G83C U144G, the “polymerase ribozyme fitness (log ratio)” value is not above -4.2.

With A47C C79G G81A U101G, the “polymerase ribozyme fitness (log ratio)” value was not above -4.2.

With A49C U56A C85G C105G G143U, the “polymerase ribozyme fitness (log ratio)” value is not above -4.2.

As to G48C A49C A60G U61A A66G C87A, the “polymerase ribozyme fitness (log ratio)” value is not above -4.2.

With G48C A91G C105U A147G, the “polymerase ribozyme fitness (log ratio)” value was not above -4.2.

As for G48C C85A A120G, the “polymerase ribozyme fitness (log ratio)” value was -2.75.

For G48A C108U, the “polymerase ribozyme fitness (log ratio)” value is not above -4.2.

As to A49C U82C C87G, the “polymerase ribozyme fitness (log ratio)” value was not above -4.2.

As for A47C G84C A91U, the “polymerase ribozyme fitness (log ratio)” value was not above -4.2.

Regarding G48A G84U A113C G124A U139A, the “polymerase ribozyme fitness (log ratio)” value was not above -4.2.

Turning to A49G G74U G88A U144A, the “polymerase ribozyme fitness (log ratio)” value was not above -4.2.

As to G48U G92U A121C A150C, the “polymerase ribozyme fitness (log ratio)” value is not above -4.2.

Take A49C G92U U127C: the “polymerase ribozyme fitness (log ratio)” value was not above -4.2.

Consider A49U G59A A115U A119C, for which the “polymerase ribozyme fitness (log ratio)” value was -3.36.

Turning to A47U U56A C99G A121C, the “polymerase ribozyme fitness (log ratio)” value was -2.02.

For A47U G86A, the “polymerase ribozyme fitness (log ratio)” value is -1.08.

In the case of A49U U55A C57A G62C A110G A150G, the “polymerase ribozyme fitness (log ratio)” value is not above -4.2.

As to A49G U56A G81A G92U A122G A137G U148G, the “polymerase ribozyme fitness (log ratio)” value was not above -4.2.

A49C C54G A98G: the “polymerase ribozyme fitness (log ratio)” value is not above -4.2.

With A47C U61A G140U U145G, the “polymerase ribozyme fitness (log ratio)” value was not above -4.2.

Turning to G50A A110G, the “polymerase ribozyme fitness (log ratio)” value was -3.88.

For A49C A52G G88U, the “polymerase ribozyme fitness (log ratio)” value is not above -4.2.

Consider A49C G81A C96U, for which the “polymerase ribozyme fitness (log ratio)” value is not above -4.2.

Turning to A49C A91G, the “polymerase ribozyme fitness (log ratio)” value is not above -4.2.

A49U U56G G81A G94A U146G: the “polymerase ribozyme fitness (log ratio)” value is not above -4.2.

For A47C G50C C54A G86A U90C A107U, the “polymerase ribozyme fitness (log ratio)” value was not above -4.2.

With A47U G48C G71C G94A C108G G124C G141A, the “polymerase ribozyme fitness (log ratio)” value was not above -4.2.

For A49C U55A C93U C132G C149G, the “polymerase ribozyme fitness (log ratio)” value was not above -4.2.

As to A49G G83U, the “polymerase ribozyme fitness (log ratio)” value is -1.22.

Consider G50A C57A A66C G81U G86C A97C, for which the “polymerase ribozyme fitness (log ratio)” value was not above -4.2.

On to G50A C57G A89C A110U U135C G140U, for which the “polymerase ribozyme fitness (log ratio)” value is not above -4.2.

Turning to G50A A52C, the “polymerase ribozyme fitness (log ratio)” value is -3.13.

For A49U U56A G68C G92C C103A A115C C118U, the “polymerase ribozyme fitness (log ratio)” value is not above -4.2.

As to A49C C54A U56A C125U G141C, the “polymerase ribozyme fitness (log ratio)” value is not above -4.2.

On to G48A G80C C87G A107U A113U, for which the “polymerase ribozyme fitness (log ratio)” value was not above -4.2.

Take A49C U78A G94U A113U C116G G140C: the “polymerase ribozyme fitness (log ratio)” value was not above -4.2.

For A49G U55A, the “polymerase ribozyme fitness (log ratio)” value is -0.644.

Regarding A49G U55A G83U C87G C103U, the “polymerase ribozyme fitness (log ratio)” value is not above -4.2.

Turning to A49C G59U U77C G81C U109G G141C, the “polymerase ribozyme fitness (log ratio)” value was not above -4.2.

As to G48U C118G, the “polymerase ribozyme fitness (log ratio)” value was -0.339.

In the case of G48U A49G C87U U130C U134G G136A, the “polymerase ribozyme fitness (log ratio)” value is not above -4.2.

Consider A49C C69G U130A U146C U148G, for which the “polymerase ribozyme fitness (log ratio)” value was not above -4.2.

For the variant A47C U90G G94U G112A U127A G136C, the “polymerase ribozyme fitness (log ratio)” value was not above -4.2.

Regarding A49C A91C C108A G152U, the “polymerase ribozyme fitness (log ratio)” value is not above -4.2.

Consider G48C C57U C85U U90C C105U, for which the “polymerase ribozyme fitness (log ratio)” value was not above -4.2.

Take A47G U56A U134G: the “polymerase ribozyme fitness (log ratio)” value is -2.17.

Regarding G48A U53A C75U, the “polymerase ribozyme fitness (log ratio)” value is not above -4.2.

With A47C U55A A60G, the “polymerase ribozyme fitness (log ratio)” value is -0.228.

Consider A49C A98U C116G A121U U148C, for which the “polymerase ribozyme fitness (log ratio)” value is not above -4.2.

As for A47C G65C G88A C103A, the “polymerase ribozyme fitness (log ratio)” value was not above -4.2.

On to A47C C103A G112A U135G, for which the “polymerase ribozyme fitness (log ratio)” value was not above -4.2.

As for A47U G59C C63U A64G G65U U77A, the “polymerase ribozyme fitness (log ratio)” value was not above -4.2.

As to A49G G50A U56A C72A A91G, the “polymerase ribozyme fitness (log ratio)” value is not above -4.2.

For A47G A52C A73G C76G C87G A98G, the “polymerase ribozyme fitness (log ratio)” value is not above -4.2.

As to A49C A52U C57G G100A, the “polymerase ribozyme fitness (log ratio)” value was not above -4.2.

With A49G G94A U127C, the “polymerase ribozyme fitness (log ratio)” value was -3.23.

On to G48U C118G U148G, for which the “polymerase ribozyme fitness (log ratio)” value is not above -4.2.

Regarding A49U C54U U111A A113G A121U G133A, the “polymerase ribozyme fitness (log ratio)” value is not above -4.2.

As for A49G A91C C93A A115U, the “polymerase ribozyme fitness (log ratio)” value is not above -4.2.

With A49C U101G U111A A115G, the “polymerase ribozyme fitness (log ratio)” value is not above -4.2.

With A49C G74U C79A C99U G124U, the “polymerase ribozyme fitness (log ratio)” value is not above -4.2.

Consider A49C G50C U56A, for which the “polymerase ribozyme fitness (log ratio)” value is not above -4.2.

G48U U56A C63U C93U A107G: the “polymerase ribozyme fitness (log ratio)” value is not above -4.2.

Turning to A47C G50C C108A U146G, the “polymerase ribozyme fitness (log ratio)” value was not above -4.2.

As for A47C G50A G65A C79U C114U, the “polymerase ribozyme fitness (log ratio)” value was not above -4.2.

Take A47U G48C: the “polymerase ribozyme fitness (log ratio)” value is -1.39.

As to A49U U82G, the “polymerase ribozyme fitness (log ratio)” value is -0.129.

As for A47U G68U, the “polymerase ribozyme fitness (log ratio)” value is not above -4.2.

For the variant G48A A49C C57A G81C C93U G124C, the “polymerase ribozyme fitness (log ratio)” value was not above -4.2.

Regarding A49U C54U G70C, the “polymerase ribozyme fitness (log ratio)” value is not above -4.2.

Consider G48U A52C U53A C57G G117U, for which the “polymerase ribozyme fitness (log ratio)” value was not above -4.2.

As to A49G A91G, the “polymerase ribozyme fitness (log ratio)” value was -4.05.

G48C G141U: the “polymerase ribozyme fitness (log ratio)” value is -1.8.

For the variant G50A C96A, the “polymerase ribozyme fitness (log ratio)” value is -2.68.
